Measured values published in publication PMC7819943, “Rice protein-binding microarrays: a tool to detect cis-acting elements near promoter regions in rice”.
This is one part of the list.

Molecular target: T1, OsWOX13 (Oryza sativa, UniProt Q5QMM3 1-267)
T1 sequence: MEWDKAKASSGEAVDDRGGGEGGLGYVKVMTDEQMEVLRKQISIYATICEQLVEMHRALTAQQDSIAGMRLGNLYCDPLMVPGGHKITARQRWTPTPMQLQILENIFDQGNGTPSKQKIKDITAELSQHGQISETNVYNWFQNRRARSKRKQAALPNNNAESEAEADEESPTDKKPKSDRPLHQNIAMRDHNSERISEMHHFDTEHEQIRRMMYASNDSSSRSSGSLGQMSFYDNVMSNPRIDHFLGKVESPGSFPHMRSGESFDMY
Test: protein-binding microarray (RPBM); PBS, 2% BSA, 51.3 ng/ul salmon testes DNA, 50 uM zinc acetate, 200 nM TF, 25 C, 1 h; high values mean tight binding
Conditions: protein: recombinant; tags: N-terminal polyhistidine and DsRed monomer fusion (pET32a); label: CyDye5-dUTP incorporated in the synthesized complementary strand; 3' TTTTT single-stranded linker to array surface; dsDNA, one strand shown
Summary of the method: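 Ni–NTA purification followed expression in E. coli BL21-CodonPlus of transcription factors fused N-terminally to a polyhistidine tag and DsRed. At 200 nM in PBS with 2% BSA, salmon testes DNA and 50 µM zinc acetate, the protein was incubated for 1 h at 25 °C with a custom Agilent array that had been primer-extended with Cy5-dUTP and blocked with 2% BSA. After washing, the array was read on an Axon 4000B scanner. The binding signal is per-feature fluorescence intensity in arbitrary units.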

Sequence | binding signal
AAACTGATTTATCTCTTAAATTACTTATCCAAATCATTATCGGAGTCACCTAGTGCAG | 13900 fluorescence intensity (a.u.)
TATACTTGATTAAGTGATCATTAATCATCTATACTACATACGGAGTCACCTAGTGCAG | 16000 fluorescence intensity (a.u.)
ATATATATATATATATATATATATATATATATAAACCCAACGGAGTCACCTAGTGCAG | 24000 fluorescence intensity (a.u.)
TTGAAATTGAAATGATGTGACGGAAAAGTTGGAAGTTTATCGGAGTCACCTAGTGCAG | 14100 fluorescence intensity (a.u.)
TCACCAATCACCTGCCCTCACACCAACACGCCACGCGAACCGGAGTCACCTAGTGCAG | 16500 fluorescence intensity (a.u.)
AGGGATGACAGAGAAATGTGGATCTGTTATTCTTCATTAGCGGAGTCACCTAGTGCAG | 3290 fluorescence intensity (a.u.)
CTATCTCATTGCTTAATTGGTCATATAATTGGGCTGAGTGCGGAGTCACCTAGTGCAG | 16900 fluorescence intensity (a.u.)
AGGTAATTGGACACCCACGGGTGACGATCCCCACTGTTCGCGGAGTCACCTAGTGCAG | 28400 fluorescence intensity (a.u.)
TCTGATTGTACAGCTCTTATGGGTAAAGGAAAATCTGCAACGGAGTCACCTAGTGCAG | 22200 fluorescence intensity (a.u.)
GAGAGGAATTTAAATTGGAAGTGGTTGATGTGATAAGTGGCGGAGTCACCTAGTGCAG | 7480 fluorescence intensity (a.u.)
CAGTAAATGGAGTTATTAGCAATCCACAAGGGATAGATGCCGGAGTCACCTAGTGCAG | 6630 fluorescence intensity (a.u.)
TATTGATATGATTTAAATTGTCCTTGGTCTTGGTGTATAACGGAGTCACCTAGTGCAG | 40700 fluorescence intensity (a.u.)
TACGTTACTTTAATTTTAATTTATTTTGTTAGAACTATTTCGGAGTCACCTAGTGCAG | 5520 fluorescence intensity (a.u.)
AGCTACTTTAATTATACTTCTGAAGATTAAAGCAGCATGTCGGAGTCACCTAGTGCAG | 5010 fluorescence intensity (a.u.)
ACATCTTAATGATTTTCTCGAATTTAATGCATGACCTTCTCGGAGTCACCTAGTGCAG | 5150 fluorescence intensity (a.u.)
TTCAACATTATAAATTACAAATTAGTAGATGACTTGCATGCGGAGTCACCTAGTGCAG | 11100 fluorescence intensity (a.u.)
ATTAGATTGGAGATATATCTGAGGGAGTTAAACTGAACTTCGGAGTCACCTAGTGCAG | 18000 fluorescence intensity (a.u.)
TGTTACTAATAATCAGTCATCATCAGGGACATCAACCACTCGGAGTCACCTAGTGCAG | 7980 fluorescence intensity (a.u.)
CTCTAAATTTGTTCGTCCGTGTCGTCCAGGTCACCAAACTCGGAGTCACCTAGTGCAG | 6440 fluorescence intensity (a.u.)
TGTGATTTTGGTGCCAAAGAAAGATGGTTCATGGAGGATGCGGAGTCACCTAGTGCAG | 3380 fluorescence intensity (a.u.)
ACACTTTGACAGACAGTATCACTCGTATACAGACAACTTCCGGAGTCACCTAGTGCAG | 8880 fluorescence intensity (a.u.)

Sequence | binding signal
TTAATTAATTAGTCCACGGCGTTAATGATACTCCACCGATCGGAGTCACCTAGTGCAG | 37300 fluorescence intensity (a.u.)
AATTGACAGAGAGTTATCTAGATTCGTAATATTAGGATATCGGAGTCACCTAGTGCAG | 21300 fluorescence intensity (a.u.)
AGGGGATAGATGGAAATCATGACGGGAGTGGCACGGTTCTCGGAGTCACCTAGTGCAG | 11900 fluorescence intensity (a.u.)
AATTAATCGTATACTAATCACTTTTCTGTGCGGCTAAGAGCGGAGTCACCTAGTGCAG | 9100 fluorescence intensity (a.u.)
TTAATTTGTATTTCTCAATAAACCGTTTAAAATTATTAGACGGAGTCACCTAGTGCAG | 6900 fluorescence intensity (a.u.)
AAAATTAGGCTCTGCGTAATTGCCTTTAACCTGTAGTAACCGGAGTCACCTAGTGCAG | 6170 fluorescence intensity (a.u.)
CCAAAATCAGCGGCCAATCATTGAGTCAATCAAATTTCACCGGAGTCACCTAGTGCAG | 29700 fluorescence intensity (a.u.)
CAGGTAATTGGGAGGGAATACCTTCTTTACTTTATCTAAGCGGAGTCACCTAGTGCAG | 26400 fluorescence intensity (a.u.)
ATTTACTAATCTCAATCTTGATCGATCGGATATAACCGAGCGGAGTCACCTAGTGCAG | 8440 fluorescence intensity (a.u.)
TACCCACTCAAATTAACTAATTAGTTAATTTTGTTTTGAACGGAGTCACCTAGTGCAG | 38800 fluorescence intensity (a.u.)
GTGGATTATTAATTAGCAAAAGATAATCAGAAAACGGAAGCGGAGTCACCTAGTGCAG | 30700 fluorescence intensity (a.u.)
GGTAATAGAGAGACCACTAATAAAGATTGTTGTACCTGTGCGGAGTCACCTAGTGCAG | 3690 fluorescence intensity (a.u.)
ATAGATTGAAAATATTTTATGTTAGATTTGAAAACTTTTGCGGAGTCACCTAGTGCAG | 18300 fluorescence intensity (a.u.)
AATGACTTGACTTTGACAAATGTAGTTGAACAAAGTTGCACGGAGTCACCTAGTGCAG | 4780 fluorescence intensity (a.u.)
CAAACAAATAGAATTTGATATGAATGATGCATCAATACACCGGAGTCACCTAGTGCAG | 5740 fluorescence intensity (a.u.)
ATGCTGATTAATGTCACCTTTTGGCCTTAATCATATAAGGCGGAGTCACCTAGTGCAG | 37900 fluorescence intensity (a.u.)
CCACAAATTAATCCCGCATGCTCTTGGCATTTACCCACCACGGAGTCACCTAGTGCAG | 7950 fluorescence intensity (a.u.)
CATTAAATTTAAAATTAAGCTCTTAGATTTAAATCTAGATCGGAGTCACCTAGTGCAG | 26600 fluorescence intensity (a.u.)
CCTTGACAAGTTTGTCCTCAATTTGATTTCAAGTCTAAAACGGAGTCACCTAGTGCAG | 9490 fluorescence intensity (a.u.)
GTCAATCAAGTCATCTAATTAGAACCCAAATCACATTAGACGGAGTCACCTAGTGCAG | 42000 fluorescence intensity (a.u.)
CACTAAAATAATTAGTGCAATGTCCGTTCACAAATTACGACGGAGTCACCTAGTGCAG | 5520 fluorescence intensity (a.u.)

Sequence | binding signal
TCATTAGCGTATAATTAATTGAGTATTAACTATTTTAAACCGGAGTCACCTAGTGCAG | 9420 fluorescence intensity (a.u.)
GCATGTTTTCATAATCAATCGGTCAATTGTATGGACATATCGGAGTCACCTAGTGCAG | 4330 fluorescence intensity (a.u.)
AACAAGACATATTGAGAAGATGATTGGGGAGTTATAGACGCGGAGTCACCTAGTGCAG | 14000 fluorescence intensity (a.u.)
CTCTAATTATGGATATGTACGCAACGTATAAGAGCGAGTACGGAGTCACCTAGTGCAG | 12900 fluorescence intensity (a.u.)
AACTTTGTTCATTTCTTTTCAATTATTATTTGTGCTCTGACGGAGTCACCTAGTGCAG | 3540 fluorescence intensity (a.u.)
CATAAACATTTGATCATCATTAAGGGCATATTCTTTGGTACGGAGTCACCTAGTGCAG | 4630 fluorescence intensity (a.u.)
TCTTTGTTGATTACTGCAGTTGAAATTTCGTCGAAGTATACGGAGTCACCTAGTGCAG | 20500 fluorescence intensity (a.u.)
TACTTCAATCAAGCTATTTGTTCAAAGCCTCCTTTCTTGACGGAGTCACCTAGTGCAG | 13400 fluorescence intensity (a.u.)
TATAATAAATGACCTGAAAATTTTGGGATGAAGGCAGTAGCGGAGTCACCTAGTGCAG | 3230 fluorescence intensity (a.u.)
ATTAATTATCATATAACGGTGTTATGTGGAGTGTGATGATCGGAGTCACCTAGTGCAG | 34100 fluorescence intensity (a.u.)
CATGAAAATTATTAATGGTGATGGTTATTGTCCGCCGAAGCGGAGTCACCTAGTGCAG | 9010 fluorescence intensity (a.u.)
CAGATGTAATTGCTGCATCAATGCGCCCGTGTCGGTGGGTCGGAGTCACCTAGTGCAG | 36600 fluorescence intensity (a.u.)
CTCTAATCGAAGGTGATTTGTGCGGCATTGAGTTTGGGATCGGAGTCACCTAGTGCAG | 21400 fluorescence intensity (a.u.)
GAACTAATTGATACATTAGCCACTTGATGAGCTCCTCTCCCGGAGTCACCTAGTGCAG | 58600 fluorescence intensity (a.u.)
ACTGACTGACTGACTGACTAATAGGGATGAAAGCGGTCAGCGGAGTCACCTAGTGCAG | 38000 fluorescence intensity (a.u.)
TAGCTGCTGACAATGATTGACTTTGGAACACGCAGGTAAGCGGAGTCACCTAGTGCAG | 23800 fluorescence intensity (a.u.)
GGAATAAATTATATTATCTATCTCTACTCCTCTCTCTTCTCGGAGTCACCTAGTGCAG | 11000 fluorescence intensity (a.u.)
GCCTTATAACTGAAAGATCATCATTACCTTCATCAGAGTTCGGAGTCACCTAGTGCAG | 3330 fluorescence intensity (a.u.)
TTGTAAAGATTTAATTATTATGAACACAACGGTGTAATCGCGGAGTCACCTAGTGCAG | 6840 fluorescence intensity (a.u.)
ATGATTCGGAATAATTAATTATTTGTCACTCCTATCTATTCGGAGTCACCTAGTGCAG | 31000 fluorescence intensity (a.u.)
TTGATTACGGTTTAGTCAGAACATTTGCGAATTGCAATGCCGGAGTCACCTAGTGCAG | 10400 fluorescence intensity (a.u.)

Sequence | binding signal
GAGCTAATTAATTAGTATTAGAATTTTCAGTCAATTCAGACGGAGTCACCTAGTGCAG | 35600 fluorescence intensity (a.u.)
ATTAACTATAAATGATTTGGAGTCAATAGTTGGCTATAATCGGAGTCACCTAGTGCAG | 16100 fluorescence intensity (a.u.)
GAACCCTAATTTTGTAGCTATACTATTTGATGCGATGCGACGGAGTCACCTAGTGCAG | 3230 fluorescence intensity (a.u.)
GAGTCAAATTGAACCTATTCCCTCAAGCTATGCAGGTTCTCGGAGTCACCTAGTGCAG | 4980 fluorescence intensity (a.u.)
TCTGATGATCTCACTGGATTTGGAAACGCCGTGTTCTTGGCGGAGTCACCTAGTGCAG | 5050 fluorescence intensity (a.u.)
GCTAATTTCACTTTTAACTAAACCGCATAACAATAATAAGCGGAGTCACCTAGTGCAG | 14600 fluorescence intensity (a.u.)
ATTCGTAATTTCTCGTATTTATCTCAACTTTTAACGGTGCCGGAGTCACCTAGTGCAG | 9940 fluorescence intensity (a.u.)
CAAATTTAATCATCTAATTATTAATATGTACTTACTTCCGCGGAGTCACCTAGTGCAG | 29900 fluorescence intensity (a.u.)
CTTATTGTTTTGATTATGCTTATGTGAATCGCTTATTAACCGGAGTCACCTAGTGCAG | 3430 fluorescence intensity (a.u.)
CTGTTGATGAACAGTATCAATCCAAAACACACATGCCAATCGGAGTCACCTAGTGCAG | 5580 fluorescence intensity (a.u.)
CAATTTCTGTGCTTTAATTGATTTACTATGCAATGCAGGTCGGAGTCACCTAGTGCAG | 20800 fluorescence intensity (a.u.)
AGGAGGAAGAAGGGATAGATTGATATGTGGGCCCCACATGCGGAGTCACCTAGTGCAG | 5080 fluorescence intensity (a.u.)
CGTTTAATATTTATAATTAATTTCTAAACATCCAATGTGACGGAGTCACCTAGTGCAG | 15400 fluorescence intensity (a.u.)
GTATAGTTATTTGATTTGCTACCAATTTATGCTCTCACTACGGAGTCACCTAGTGCAG | 7210 fluorescence intensity (a.u.)
CTTTTCGATTGAATGACTAGGTGTTTTGTGTTAATCTTGTCGGAGTCACCTAGTGCAG | 21800 fluorescence intensity (a.u.)
TGCATGCAGTCATCAAAATAGACATACAATTGTTAGGACACGGAGTCACCTAGTGCAG | 6330 fluorescence intensity (a.u.)
ACCAGATTACTATTGCTACACAAAATGTCAAATTGTTCCACGGAGTCACCTAGTGCAG | 3220 fluorescence intensity (a.u.)
ATTTAATTATTTATTCCAACGCAGAGAAGAATTTTAGAAGCGGAGTCACCTAGTGCAG | 31300 fluorescence intensity (a.u.)
ATAATTAATGTATGATGCGCAAATAAAATGGTTATATCATCGGAGTCACCTAGTGCAG | 13800 fluorescence intensity (a.u.)
AGGCAGTATTCAATCTTGATTATGGGCAGCTGAAACTCGTCGGAGTCACCTAGTGCAG | 4640 fluorescence intensity (a.u.)
ACTTAAAATAGATAGAATTTGAATTGATGTCATATTTAGACGGAGTCACCTAGTGCAG | 8600 fluorescence intensity (a.u.)
